Results taken from article PMC4117486, “Investigation of Endoglin Wild-Type and Missense Mutant Protein Heterodimerisation Using Fluorescence Microscopy Based IF, BiFC and FRET Analyses” (PLoS ONE, 2014).

Target: T1, endoglin wild-type, EYFP- or ECFP-tagged (human, UniProt P17813 26-658)
T1 construct: endoglin (CD105), human, wild type; EYFP-tagged with the ECFP-tagged receptors and with soluble ECFP; ECFP-tagged with the EYFP-tagged mutants; both versions together for the homodimer; also called endoglin^wt-EYFP; endoglin^wt-ECFP; source: CHO cells, transiently co-transfected (50 ng of each construct per 100 000 cells), in living cells; not shown: EYFP (acceptor) or ECFP (donor), C-terminal, …
T1 sequence (looked up): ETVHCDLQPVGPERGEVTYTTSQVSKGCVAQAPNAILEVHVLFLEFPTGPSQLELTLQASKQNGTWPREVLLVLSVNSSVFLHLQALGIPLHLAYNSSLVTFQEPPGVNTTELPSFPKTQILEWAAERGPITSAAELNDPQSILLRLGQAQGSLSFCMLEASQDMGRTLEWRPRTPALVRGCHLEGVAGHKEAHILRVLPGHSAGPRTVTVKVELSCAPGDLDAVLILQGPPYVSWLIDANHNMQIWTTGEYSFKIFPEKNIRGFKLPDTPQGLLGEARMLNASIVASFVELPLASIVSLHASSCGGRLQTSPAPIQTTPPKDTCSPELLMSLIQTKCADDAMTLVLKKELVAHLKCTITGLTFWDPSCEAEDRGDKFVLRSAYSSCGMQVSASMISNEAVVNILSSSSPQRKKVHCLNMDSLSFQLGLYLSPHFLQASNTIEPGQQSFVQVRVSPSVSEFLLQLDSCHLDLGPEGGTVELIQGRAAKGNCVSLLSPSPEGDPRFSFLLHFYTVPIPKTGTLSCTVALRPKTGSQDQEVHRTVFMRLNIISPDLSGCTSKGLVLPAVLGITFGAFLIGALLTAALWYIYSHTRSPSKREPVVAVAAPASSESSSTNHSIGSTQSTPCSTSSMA
Test: FRET or BRET; microscopic FRET in living CHO cells, ECFP donor and EYFP acceptor, 50 ng of each construct per 100 000 cells, 24 h after transfection, HEPES buffered ringer solution; FRET index (FI) = FRET efficiency x area with FRET; FI<51 no interaction, 51-99 weak or false positive, >=100 interaction; at least 30 cells per sample
Conditions: partners not purified

B1: ALK1, ECFP- or EYFP-tagged (receptor)
chain: [about 100 residues not spelt out]LALILGPVLALLALVALGVLGLWHVRRRQEKQRGLHSELGESSLILKASEQGDSMLGDLLDSDCTTGSGSGLPFLVQRTVARQVALVECVGKGRYGEVWRGLWHGESVAVKIFSSRDEQSWFRETEIYNTVLLRHDNILGFIASDMTSRNSSTQLWLITHYHEHGSLYDFLQRQTLEPHLALRLAVSAACGLAHLHVEIFGTQGKPAIAHRDFKSRNVLVKSNLQCCIADLGLAVMHSQGSDYLDIGNNPRVGTKRYMAPEVLDEQIRTDCFESYKWTDIWAFGLVLWEIARRTIVNGIVEDYRPPFYDVVPNDPSFEDMKKVVCVDQQTPTIPNRLAADPVLSGLAQMMRECWYPNPSARLTALRIKKTLQKISNSPEKPKVIQ
notes: ALK1, TGF-β type I receptor; The methods name only the EYFP version; the results use an ECFP-tagged version; also called ALK1-EYFP; source: CHO cells, transiently co-transfected, in living cells
% of cells clearly FRET-positive (FRET index >=100): 12% | % of cells in FRET index group 2 (FI 51-99, weak or false positive): 8% | mean FRET index of the positive cells: 166 FRET index
